Reference: PubChem BioAssay AID624296 (National Center for Advancing Translational Sciences (NCATS), 2012)
Screen size: about 350,000 compounds; about 9,900 (2.8%) were called active. Inconclusive results, whose numbers are uncertain, are shown with a selection of clear calls. Calls follow the shape of the dose curve; as a rule, active = well fitted activation curve with a large enough effect; inconclusive = small, poorly fitted or top-dose-only effect; inactive = no such curve, though single readings can be large or run the other way. No potency is given beside an inconclusive call; the fits are too rough.

Experiment: A quantitative high throughput screen for small molecules that induce DNA re-replication in MCF 10a normal breast cells. Also: nearly all actives have a fitted effect of over 50% in size. As to activity, positive = re-replication: % of control where 0% means no effect.
Conditions: MCF 10A DNA re-replication, Hoechst nuclear intensity, 48 h; activity, positive = re-replication: at 46.1 µM (top of the series)
Potency is read from the fitted curve at half-maximal effect; tags tell the direction and shape of the fitted curve.

Structure (SMILES) | Potency | activity, positive = re-replication
Cc1c(C(=O)N2CCN(S(=O)(=O)c3ccccc3F)CC2)oc2c(Cl)cccc12 | inconclusive [activator, partial curve] | 
Cc1cc(Nc2cc(N3CCN(C)CC3)nc(Sc3ccc(NC(=O)C4CC4)cc3)n2)n[nH]1 | inconclusive [activator, full curve, poor fit] | 
Cc1cccc(NC(=O)C2(c3ccccc3)CC2(Cl)Cl)c1 (stereo unspecified) | inconclusive [activator, partial curve, poor fit] | 
COc1ccc(OC)c(C(c2c(O)nc(SC)[nH]c2=O)c2c(O)nc(SC)[nH]c2=O)c1 | inconclusive [activator, single point] | 
Cc1cccn2c(=O)c(C=O)c(N3CCC4(CC3)OCCO4)nc12 | inconclusive [activator, partial curve, poor fit] | 
Cc1cc(C(=O)Nc2ccon2)c(C)o1 | inconclusive [activator, single point] | 
CNC(=S)NNC(=O)c1sccc1OCc1ccc(Cl)cc1Cl |  | inactive: 10%
COc1cc(/C=N/Nc2ncnc3sc4c(c23)CCC4)ccc1O | inconclusive [activator, single point] | 
Cc1ccc(NC(=O)CCn2cccc2)cc1C |  | inactive: 9.27%
O=c1[nH]c(C2CCN(S(=O)(=O)c3ccc(S(=O)(=O)NC4CC4)cc3)CC2)nc2c1nnn2Cc1ccccc1 | inconclusive [activator, single point] | 
Cc1ccc(CNC(=O)C2c3ccccc3C(=O)N3CCc4ccccc4C23)o1 (stereo unspecified) | active: 18.4 µM | 
NNC(=O)c1[nH]c(-c2ccccc2)cc1-c1ccccc1 | inconclusive [activator, single point] | 
Cc1ccc2nc(NC(=O)CN(C)S(=O)(=O)c3ccc(Br)s3)sc2c1 | active: 23.1 µM | 
O=C(N/N=C/c1ccc(O)cc1O)c1ccncc1 |  | inactive: -0.205%
CC(CN1CCOCC1)OC(=O)c1ccc(Br)cc1 (stereo unspecified) | inconclusive [activator, single point] | 
Cc1noc(/C=C/N(C)C)c1S(=O)(=O)N1CCCC(C(=O)Nc2ccccc2F)C1 (stereo unspecified) | active: 23.1 µM | 
O=C(CN1CCN(c2ccccn2)CC1)Nc1cc(C(F)(F)F)ccc1Cl | inconclusive [activator, single point] | 
CCN(CC)c1cc(C(F)(F)F)nc(-c2ccccn2)n1 | inconclusive [activator, partial curve, poor fit] | 
Cn1c(=O)[nH]c(=O)c2c1nc1n2CC(COc2ccc3ccccc3c2)O1 (stereo unspecified) | inconclusive [activator, full curve] | 
O=C(c1ccc(-c2nnc(Nc3cccc(Cl)c3)c3ccccc23)cc1)N1C[C@H]2C[C@H](C1)c1cccc(=O)n1C2 | inconclusive [activator, single point] | 
COC(=O)c1ccc(N2CCN(C)CC2)c(NC(=O)c2sc3ccccc3c2Cl)c1 |  | inactive: 1.66%
COc1ccc(S(=O)(=O)N2CCc3ccccc32)cc1C(=O)OCC(=O)c1c(N)n(C)c(=O)n(C)c1=O | inconclusive [activator, partial curve, poor fit] | 

Structure (SMILES) | Potency | activity, positive = re-replication
O=C1/C(=C/c2cccc3ccccc23)CCCc2ccccc21 | inconclusive [activator, single point] | 
CC(C)(C)NC(=O)Cn1nnc(-c2ccc(OCc3c(F)cccc3Cl)cc2)n1 | inconclusive [activator, full curve, poor fit] | 
CC(=O)Nc1ccc(S(=O)(=O)Nc2cccn(Cc3ccc(C)cc3)c2=O)cc1 | inconclusive [activator, single point] | 
Cc1ccc(SCC(=O)Nc2cccc(NC(=O)c3ccco3)c2)cc1 | inconclusive [activator, single point] | 
CCCC(=O)N1CCCC(c2nc(-c3cccs3)no2)C1 (stereo unspecified) | inconclusive [activator, single point] | 
CCn1c(N2CCN(S(=O)(=O)c3ccc(Cl)cc3)CC2)nc2ccccc21 |  | inactive: -0.707%
CC(C)(C)C(=O)NC(=S)Nc1sc2c(c1C#N)CCCCC2 | inconclusive [activator, partial curve] | 
O=C(CCC(=O)N(CC(=O)NC1CCCCC1)Cc1cccs1)Nc1ccccn1 |  | inactive: -8.42%
COc1ccc(S(=O)(=O)N2CCN(CC(=O)Nc3c(C)n[nH]c3C)CC2)cc1OC |  | inactive: 1.82%
CSc1ccc(NC(=O)N2CCC(C(=O)c3ccc(F)cc3)CC2)cc1 |  | inactive: 1.75%
CN(C)c1ccnc(Nc2ccccc2)c1C#N |  | inactive: -4.25%
CN1c2ccccc2C(O)=C(C(=S)Nc2ccc(Cl)cc2)S1(=O)=O | inconclusive [activator, single point] | 
CCCCC[C@@H]1C=C(C(=O)O)[C@H](c2ccc(Cl)c(Cl)c2)N1S(=O)(=O)c1ccc(C)cc1 | inconclusive [activator, single point] | 
COc1ccc2oc(=O)c(C(=O)NC(C)c3ccccc3)cc2c1 (stereo unspecified) | inconclusive [activator, full curve, poor fit] | 
Cc1ccc(NC(=S)NNC(=O)c2nnn(-c3ccccc3)c2C)cc1 |  | inactive: -75.2%
O=S(=O)(Nc1cccc2cccnc12)c1ccc(S(=O)(=O)N2CCCC2)cc1 | inconclusive [activator, full curve, poor fit] | 
CCOC(=O)[C@H]1[C@H]2COc3ccc(Br)cc3[C@@H]2N2C(=O)c3cc(F)c(F)cc3NC(=O)[C@@]12C |  | inactive: 25.2%
CN(C(=O)COc1ccc(-c2nnco2)cc1)C1CCS(=O)(=O)C1 (stereo unspecified) |  | inactive: 1.29%
CCOC(=O)c1c(N)sc2c(OC)c(Br)ccc12 | inconclusive [activator, single point] | 
CCOc1ccc(CCNC(=O)c2[nH]c(C)c(C(C)=O)c2CC)cc1OCC | inconclusive [activator, partial curve, poor fit] | 
O=C(Nc1cccc(NC(=O)c2nccc3ccccc23)c1)c1ccco1 | inconclusive [activator, single point] | 
COCCN(C(=O)CCCC(=O)Nc1ccccn1)C(C(=O)NC1CCCCC1)c1ccc(C)cc1 (stereo unspecified) |  | inactive: -1.28%

Structure (SMILES) | Potency | activity, positive = re-replication
CC(O)CNC12CC3CC(CC(C3)C1)C2 (stereo unspecified) | inconclusive [activator, single point] | 
OC1CN=C2CCCc3c2n(c2ccc(Cl)cc32)C1 (stereo unspecified) | inconclusive [activator, partial curve, poor fit] | 
Cc1cc(OCC(=O)OCC(=O)NCCN2C(=O)CSC2=O)ccc1Cl |  | inactive: -5.56%
Clc1ccc(OCCCc2nc(-c3ccncc3)no2)c(Cl)c1 | inconclusive [activator, single point] | 
COc1ccc2c(c1)OC[C@H]1[C@H]2N2C(=O)CN(C)C(=O)[C@@]2(C)[C@H]1c1ccccc1 | inconclusive [activator, single point] | 
COc1ccc(-c2nnc3n(CCc4ccccc4)c(=O)c4ccccc4n23)cc1OC | inconclusive [activator, single point] | 
CCOC(=O)c1cc(-c2ccc(OC)cc2)nc2c1c(C)nn2CCC#N | inconclusive [activator, single point] | 
O=C(Nc1ccc(Cl)cc1)/C(=C/c1cccc(O)c1)c1nc2ccccc2s1 | active: 4.11 µM | 
COC(=O)C(Cc1ccccc1)NC(=O)CCc1c[nH]c2ccccc12 (stereo unspecified) |  | inactive: 4.25%
CC(=O)Oc1ccc(N2C(=O)c3cccc4c([N+](=O)[O-])ccc(c34)C2=O)cc1 | inconclusive [activator, single point] | 
O=C(Nc1ccccc1N1CCCCC1)c1ncoc1-c1ccc(F)cc1 | inconclusive [activator, partial curve] | 
CCCc1nnc(SCC(=O)Nc2ccccc2Cl)n1CC1CCCO1 (stereo unspecified) |  | inactive: 8.88%
O=C(Cn1c2ccccc2c(=O)c2ccccc21)N/N=C/c1ccc(N2CCCC2)c([N+](=O)[O-])c1 | inconclusive [activator, partial curve, poor fit] | 
CC(NC(=O)CN1C(=O)NC2(CCCCC2)C1=O)c1ccc(S(N)(=O)=O)cc1 (stereo unspecified) | inconclusive [activator, single point] | 
CSCCC(NC(=O)COc1ccccc1)C(=O)OC(C)C(=O)Nc1ccccc1C (stereo unspecified) |  | inactive: 1.68%
Cc1ccc(-c2cc(C#N)c(=O)n(Cc3c(Cl)cccc3Cl)c2)cc1 | inconclusive [activator, partial curve, poor fit] | 
N#Cc1ccc(-c2ccc(F)cc2)nc1SCC(=O)Nc1sc2c(c1C#N)CCC2 | inconclusive [activator, partial curve, poor fit] | 
c1ccc(CNc2c3c(nc4ncnn24)CCCC3)nc1 | inconclusive [activator, partial curve, poor fit] | 
Cc1ccc(NS(=O)(=O)c2ccc(OCC(=O)NCc3ccncc3)cc2)cc1 | inconclusive [activator, single point] | 
O=C(CCNC(=O)c1ccccc1Cl)Nc1cccc(S(=O)(=O)N2CCOCC2)c1 |  | inactive: -2.44%
COc1ccccc1N1CCN(C(=O)CSc2nc3ccccc3nc2N2CCCCC2)CC1 | inconclusive [activator, single point] | 
Cn1c(NC(=O)/C=C/c2ccc(Cl)c(Cl)c2)cc(=O)n(C)c1=O | inconclusive [activator, partial curve, poor fit] | 
